Measurements: US20090155268A1 (VEGENICS, published 2009)

T1: VEGF-A 109 (minimal VEGF-A fragment with 109 residues) (radiolabelled (printed as tritiated; ligand solution may be supernatant of metabolically labeled 293T cells))
T1 chain: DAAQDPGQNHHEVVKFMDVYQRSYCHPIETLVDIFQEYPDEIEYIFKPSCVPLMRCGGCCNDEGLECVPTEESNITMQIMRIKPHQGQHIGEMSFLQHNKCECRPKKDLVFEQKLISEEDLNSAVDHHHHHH

T2: VEGF-C 109 (minimal VEGF-C fragment with 109 residues) (radiolabelled (printed as tritiated; ligand solution may be supernatant of metabolically labeled 293T cells))
T2 chain: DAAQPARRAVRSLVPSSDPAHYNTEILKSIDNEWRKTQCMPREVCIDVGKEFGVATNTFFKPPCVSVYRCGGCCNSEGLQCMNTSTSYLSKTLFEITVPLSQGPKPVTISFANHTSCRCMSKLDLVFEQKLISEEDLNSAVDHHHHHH

B1: R-2 A with CD33 Signal Peptide (VEGFR-2 D1-3 / human IgG Fc fusion) (Fc fusion)
chain: MDKLASGSLPSVSLDLPRLSIQKDILTIKANTTLQITCRGQRDLDWLWPNNQSGSEQRVEVTECSDGLFCKTLTIPKVIGNDTGAYKCFYRETDLASVIYVYVQDYRSPFIASVSDQHGVVYITENKNKTVVIPCLGSISNLNVSLCARYPEKRFVPDGNRISWDSKKGFTIPSYMISYAGMVFCEAKINDESYQSIMYIVVVVGYRIYDVVLSPSHGIELSVGEKLVLNCTARTELNVGIDFNWEYPSSKHQHKKLVNRDLKTQSGSEMKKFLSTLTIDGVTRSDQGLYTCAASSGLMTKKNSTFVRVHEDPIEGRGGGGGD[gap - human IgG1 Fc with changes]
notes: Used as conditioned medium of 293T cells; Heterologous CD33 signal peptide in the expression construct; also called VEGFR-2/IgG D1-3 construct; not shown: human IgG Fc fragment fused to the C-terminus (Signal pIgplus vector)
B2: R-2 G with CD33 Signal Peptide (VEGFR-2 fragment / human IgG Fc fusion) (Fc fusion)
chain: MDKLASVQDYRSPFIASVSDQHGVVYITENKNKTVVIPCLGSISNLNVSLCARYPEKRFVPDGNRISWDSKKGFTIPSYMISYAGMVFCEAKINDESYQSIMYIVVVVGYRIYDVVLSPSHGIELSVGEKLVLNCTARTELNVGIDFNWEYPSSKHQHKKLVNRDLKTQSGSEMKKFLSTLTIDGVTRSDQGLYTCAASSGLMTKKNSTFVRVHEDPIEGRGGGGGD[gap - human IgG1 Fc with changes]
notes: CD33 signal peptide in the expression construct; not shown: human IgG Fc fragment fused to the C-terminus
B3: R-2 H with CD33 Signal Peptide (VEGFR-2 fragment / human IgG Fc fusion) (Fc fusion)
chain: MDKLASVQDYRSPFIASVSDQHGVVYITENKNKTVVIPCLGSISNLNVSLCARYPEKRFVPDGNRISWDSKKGFTIPSYMISYAGMVFCEAKINDESYQSIMYIVVVVGDPIEGRGGGGGD[gap - human IgG1 Fc with changes]
notes: as for B2
B4: R-2 B with CD33 Signal Peptide (VEGFR-2 fragment / human IgG Fc fusion) (Fc fusion)
chain: MDKLASGTLEDGRGSLPSVSLDLPRLSIQKDILTIKANTTLQITCRGQRDLDWLWPNNQSGSEQRVEVTECSDGLFCKTLTIPKVIGNDTGAYKCFYRETDLASVIYVYVQDYRSPFIASVSDQHGVVYITENKNKTVVIPCLGSISNLNVSLCARYPEKRFVPDGNRISWDSKKGFTIPSYMISYAGMVFCEAKINDESYQSIMYIVVVVGDPIEGRGGGGGD[gap - human IgG1 Fc with changes]
notes: as for B2
B5: R-2 F with CD33 Signal Peptide (VEGFR-2 fragment / human IgG Fc fusion) (Fc fusion)
chain: MDKLASGTLEDGRGSLPSVSLDLPRLSIQKDILTIKANTTLQITCRGQRDLDWLWPNNQSGSEQRVEVTECSDGLFCKTLTIPKVIGNDTGAYKCFYRETDLASVIYVYVQDPIEGRGGGGGD[gap - human IgG1 Fc with changes]
notes: as for B2
B6: R-2 I with CD33 Signal Peptide (VEGFR-2 fragment / human IgG Fc fusion) (Fc fusion)
chain: MDKLASVQDYRSPFIASVSDQHGVVYITENKNKTVVIPCLGSISNLNVSLCARYPEKRFVPDGNRISWDSKKGFTIPSYMISYAGMVFCEAKINDESYQSIMYIVVVVGYRIYDVDPIEGRGGGGGD[gap - human IgG1 Fc with changes]
notes: as for B2
B7: R-2 J with CD33 Signal Peptide (VEGFR-2 fragment / human IgG Fc fusion) (Fc fusion)
chain: MDKLASVQDYRSPFIASVSDQHGVVYITENKNKTVVIPCLGSISNLNVSLCARYPEKRFVPDGNRISWDSKKGFTIPSYMISYAGMVFCEAKINDESYQSIMYIVVVVGYRIYDVVLSPSHDPIEGRGGGGGD[gap - human IgG1 Fc with changes]
notes: as for B2
B8: R-2 K with CD33 Signal Peptide (VEGFR-2 fragment / human IgG Fc fusion) (Fc fusion)
chain: MDKLASVQDYRSPFIASVSDQHGVVYITENKNKTVVIPCLGSISNLNVSLCARYPEKRFVPDGNRISWDSKKGFTIPSYMISYAGMVFCEAKINDESYQSIMYIVVVVGYRIYDVVLSPSHGIELSVGEKDPIEGRGGGGGD[gap - human IgG1 Fc with changes]
notes: as for B2
B9: R-2 L with CD33 Signal Peptide (VEGFR-2 fragment / human IgG Fc fusion) (Fc fusion)
chain: MDKLASYRIYDVVLSPSHGIELSVGEKLVLNCTARTELNVGIDFNWEYPSSKHQHKKLVNRDLKTQSGSEMKKFLSTLTIDGVTRSDQGLYTCAASSGLMTKKNSTFVRVHEDPIEGRGGGGGD[gap - human IgG1 Fc with changes]
notes: as for B2
B10: R-2 C with CD33 Signal Peptide (VEGFR-2 fragment / human IgG Fc fusion) (Fc fusion)
chain: MDKLASGTLEDGRGSLPSVSLDLPRLSIQKDILTIKANTTLQITCRGQRDLDWLWPNNQSGSEQRVEVTECSDGLFCKTLTIPKVIGNDTGAYKCFYRETDLASVIYVYVQDYRSPFIASVSDQHGVVYITENKNKTVVIPCLGSISNLNVSLCARYPEKRFVPDGNRISWDSKKGFTIPSYMISYAGMVFCEAKINDESYQSIMYIVVVVGYRIYDVDPIEGRGGGGGD[gap - human IgG1 Fc with changes]
notes: as for B2
B11: R-2 D with CD33 Signal Peptide (VEGFR-2 fragment / human IgG Fc fusion) (Fc fusion)
chain: MDKLASGTLEDGRGSLPSVSLDLPRLSIQKDILTIKANTTLQITCRGQRDLDWLWPNNQSGSEQRVEVTECSDGLFCKTLTIPKVIGNDTGAYKCFYRETDLASVIYVYVQDYRSPFIASVSDQHGVVYITENKNKTVVIPCLGSISNLNVSLCARYPEKRFVPDGNRISWDSKKGFTIPSYMISYAGMVFCEAKINDESYQSIMYIVVVVGYRIYDVVLSPSHDPIEGRGGGGGD[gap - human IgG1 Fc with changes]
notes: as for B2
B12: R-2 E with CD33 Signal Peptide (VEGFR-2 fragment / human IgG Fc fusion) (Fc fusion)
chain: MDKLASGTLEDGRGSLPSVSLDLPRLSIQKDILTIKANTTLQITCRGQRDLDWLWPNNQSGSEQRVEVTECSDGLFCKTLTIPKVIGNDTGAYKCFYRETDLASVIYVYVQDYRSPFIASVSDQHGVVYITENKNKTVVIPCLGSISNLNVSLCARYPEKRFVPDGNRISWDSKKGFTIPSYMISYAGMVFCEAKINDESYQSIMYIVVVVGYRIYDVVLSPSHGIELSVGEKDPIEGRGGGGGD[gap - human IgG1 Fc with changes]
notes: as for B2

Target: T1, VEGF-A 109 (minimal VEGF-A fragment …)
Assay: precipitation of radiolabelled VEGF-A 109 by the Fc fusion with protein A sepharose, SDS-PAGE autoradiography
Experimental: (§1) Either Tritiated VEGF-A 109 or VEGF-C 109 was used in a given binding experiment. Ligand in solution was precipitated by mixing 175 μl of ligand solution with 100 μl binding mix at 4° C. overnight, with agitation. The ligand solution may be the supernatant of metabolically labeled 293T cells. The binding mixes used for the receptor binding analysis were as follows: for VEGFR-1 binding assays, the binding mix was phosphate buffered saline (PBS) containing 1.5% BSA, 0.06% Tween 20, 3 μg/ml heparin and 400 ng/ml VEGFR-1-Fc fusion protein (100 μl of this binding mix was added to 200 μl of ligand solution). For VEGFR-2 binding assays, the binding mix was 82% conditioned cell supernatant from 293T cells transiently expressing VEGFR-2-Fc fusion protein in mixture with 18% of a PBS solution that contained 5% BSA, 0.2% Tween 20, and 10 μg/ml heparin (250 μl of binding mix was added to 200 μl of ligand solution). For VEGFR-3 binding assays, the binding mix was 82% conditioned cell supernatant from 293T cells transiently expressing VEGFR-3-Fc fusion protein, 18% of PBS containing 5% BSA, 0.2% Tween 20, and 10 μg/ml heparin (250 μl of binding mix was added to 200 μl of ligand solution). To collect precipitated ligand, 50 μl of a 30% protein A sepharose (PAS, Pharmacia) slurry in PBS was added and incubated under agitation for at least 1.5 hr at 4° C. Standard buffer was added to each immunoprecipitation sample and boiled for 5 minutes at 95° C. during which the immunopreciptated proteins become dissociated from the protein A sepharose. After centrifugation, 10 μl of each sample was analyzed on 15% SDS-PAGE under reducing conditions. The gels were dried and exposed for either 12 hours on phosphorimager plates or 4 weeks on X-ray film.

Question: Does B1 bind?
Answer: Result: binds

Question: Does B2 bind?
Answer: Result: binds

Question: Does B3 bind?
Answer: Result: no binding

Question: Does B4 bind?
Answer: Result: no binding

Question: Does B5 bind?
Answer: Result: no binding

Question: Does B6 bind?
Answer: Result: no binding

Question: Does B7 bind?
Answer: Result: no binding

Question: Does B8 bind?
Answer: Result: no binding

Question: Does B9 bind?
Answer: Result: no binding

Question: Does B10 bind?
Answer: Result: no binding

Question: Does B11 bind?
Answer: Result: no binding

Question: Does B12 bind?
Answer: Result: no binding

Target: T2, VEGF-C 109 (minimal VEGF-C fragment …)
Assay: precipitation of radiolabelled VEGF-C 109 by the Fc fusion with protein A sepharose, SDS-PAGE autoradiography
Experimental: as §1

Question: Does B1 bind?
Answer: Result: binds

Question: Does B2 bind?
Answer: Result: binds

Question: Does B3 bind?
Answer: Result: binds

Question: Does B4 bind?
Answer: Result: no binding

Question: Does B5 bind?
Answer: Result: no binding

Question: Does B8 bind?
Answer: Result: no binding

Question: Does B9 bind?
Answer: Result: no binding

Question: Does B10 bind?
Answer: Result: no binding

Question: Does B11 bind?
Answer: Result: no binding

Question: Does B12 bind?
Answer: Result: no binding
